# Data from the supplement of paper PMC8728848.
# The list shows a part of the results.
# Legend:
# Assay in all cases: glycan array binding signal (z-score within array); higher = stronger binding
# Conditions in all cases: glycan notation: IUPAC condensed, linker removed
# [1] = biological target: Fuc(a1-2)[GalNAc(a1-3)]Gal(b1-4)Glc
# Summary of the method: (§1)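 The binding signal is a Z-score computed within each array and averaged over linkers. Arrays of the same protein sequence at different concentrations or buffers were also averaged together. Data originate from 3228 arrays in the Consortium for Functional Glycomics database, kept only where the protein sequence was available.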
# [2] = biological target: Fuc(a1-2)[GalNAc(a1-3)]Gal(b1-4)GlcNAc
# Summary of the method: as §1
# [3] = biological target: Fuc(a1-2)[GalNAc(a1-3)]Gal(b1-4)GlcNAc(b1-2)Man(a1-3)[Fuc(a1-2)[GalNAc(a1-3)]Gal(b1-4)GlcNAc(b1-2)Man(a1-6)]Man(b1-4)GlcNAc(b1-4)GlcNAc
# Summary of the method: as §1
# [4] = biological target: Fuc(a1-2)[GalNAc(a1-3)]Gal(b1-4)GlcNAc(b1-2)Man(a1-3)[Fuc(a1-2)[GalNAc(a1-3)]Gal(b1-4)GlcNAc(b1-2)Man(a1-6)]Man(b1-4)GlcNAc(b1-4)[Fuc(a1-6)]GlcNAc
# Summary of the method: as §1
# [5] = biological target: Fuc(a1-2)[GalNAc(a1-3)]Gal(b1-4)GlcNAc(b1-3)Gal(b1-4)GlcNAc
# Summary of the method: as §1
# [6] = biological target: Fuc(a1-2)[GalNAc(a1-3)]Gal(b1-4)GlcNAc(b1-3)Gal(b1-4)GlcNAc(b1-3)Gal(b1-4)GlcNAc
# Summary of the method: as §1
# [7] = biological target: Fuc(a1-2)[GalNAc(a1-3)]Gal(b1-4)GlcNAc(b1-3)GalNAc
# Summary of the method: as §1
# [8] = biological target: Fuc(a1-2)[GalNAc(a1-3)]Gal(b1-4)[Fuc(a1-3)]GlcNAc
# Summary of the method: as §1
# [9] = biological target: Fuc(a1-2)[GalNAc(a1-3)]Gal(b1-4)[Fuc(a1-3)]GlcNAc(b1-3)GalNAc
# Summary of the method: as §1
# [10] = biological target: Fuc(a1-2)[GalNAc(a1-4)]Gal(b1-4)GlcNAc
# Summary of the method: as §1
# [11] = biological target: Fuc(a1-2)[GalNAc(b1-3)]Gal
# Summary of the method: as §1
# [12] = biological target: Fuc(a1-3)GlcNAc
# Summary of the method: as §1
# [13] = biological target: Fuc(a1-3)[Gal(b1-4)]Glc6S
# Summary of the method: as §1
# [14] = biological target: Fuc(a1-3)[Gal(b1-4)]GlcNAc
# Summary of the method: as §1
# [15] = biological target: Fuc(a1-3)[Gal(b1-4)]GlcNAc(b1-2)Man(a1-3)[Fuc(a1-3)[Gal(b1-4)]GlcNAc(b1-2)Man(a1-6)]Man(b1-4)GlcNAc(b1-4)GlcNAc
# Summary of the method: as §1
# [16] = biological target: Fuc(a1-3)[Gal(b1-4)]GlcNAc(b1-2)Man(a1-3)[Fuc(a1-3)[Gal(b1-4)]GlcNAc(b1-2)Man(a1-6)]Man(b1-4)GlcNAc(b1-4)[Fuc(a1-6)]GlcNAc
# Summary of the method: as §1
# [17] = biological target: Fuc(a1-3)[Gal(b1-4)]GlcNAc(b1-3)Gal(b1-3)[Fuc(a1-4)]GlcNAc
# Summary of the method: as §1
# [18] = biological target: Fuc(a1-3)[Gal(b1-4)]GlcNAc(b1-3)GalNAc
# Summary of the method: as §1
# [19] = biological target: Fuc(a1-3)[Gal(b1-4)]GlcNAc(b1-4)Gal(b1-4)[Fuc(a1-3)]GlcNAc
# Summary of the method: as §1
# [20] = biological target: Fuc(a1-3)[Gal(b1-4)]GlcNAc(b1-4)Gal(b1-4)[Fuc(a1-3)]GlcNAc(b1-4)Gal(b1-4)[Fuc(a1-3)]GlcNAc
# Summary of the method: as §1
# [21] = biological target: Fuc(a1-3)[Gal(b1-4)]GlcNAc(b1-6)GalNAc
# Summary of the method: as §1
# [22] = biological target: Fuc(a1-3)[Gal(b1-4)]GlcNAc(b1-6)[Gal(b1-3)GlcNAc(b1-3)]Gal(b1-4)Glc
# Summary of the method: as §1
# [23] = biological target: Fuc(a1-3)[Gal(b1-4)]GlcNAc(b1-6)[Neu5Ac(a2-3)Gal(b1-3)]GalNAc
# Summary of the method: as §1
# [24] = biological target: Fuc(a1-3)[Gal(b1-4)]GlcNAc6S
# Summary of the method: as §1
# [25] = biological target: Fuc(a1-3)[Gal3S(b1-4)]GlcNAc
# Summary of the method: as §1
# [26] = biological target: Fuc(a1-3)[Gal3S(b1-4)]GlcNAc6S
# Summary of the method: as §1
# [27] = biological target: Fuc(a1-3)[GalNAc(b1-4)]GlcNAc
# Summary of the method: as §1
# [28] = biological target: Fuc(a1-4)GlcNAc
# Summary of the method: as §1
# [29] = biological target: Fuc(b1-3)GlcNAc
# Summary of the method: as §1
# [30] = biological target: Gal(a1-2)Gal
# Summary of the method: as §1
# [31] = biological target: Gal(a1-3)Gal
# Summary of the method: as §1
# [32] = biological target: Gal(a1-3)Gal(b1-3)GlcNAc
# Summary of the method: as §1
# [33] = biological target: Gal(a1-3)Gal(b1-3)GlcNAc(b1-2)Man(a1-3)[Gal(a1-3)Gal(b1-3)GlcNAc(b1-2)Man(a1-6)]Man(b1-4)GlcNAc(b1-4)GlcNAc
# Summary of the method: as §1
# [34] = biological target: Gal(a1-3)Gal(b1-3)GlcNAc(b1-3)GalNAc
# Summary of the method: as §1
# [35] = biological target: Gal(a1-3)Gal(b1-3)[Fuc(a1-4)]GlcNAc(b1-2)Man(a1-3)[Gal(a1-3)Gal(b1-3)[Fuc(a1-4)]GlcNAc(b1-2)Man(a1-6)]Man(b1-4)GlcNAc(b1-4)GlcNAc
# Summary of the method: as §1
# [36] = biological target: Gal(a1-3)Gal(b1-4)Glc
# Summary of the method: as §1
# [37] = biological target: Gal(a1-3)Gal(b1-4)GlcNAc
# Summary of the method: as §1
# [38] = biological target: Gal(a1-3)Gal(b1-4)GlcNAc(b1-3)GalNAc
# Summary of the method: as §1
# [39] = biological target: Gal(a1-3)Gal(b1-4)[Fuc(a1-3)]GlcNAc
# Summary of the method: as §1
# [40] = biological target: Gal(a1-3)Gal(b1-4)[Fuc(a1-3)]GlcNAc(b1-2)Man(a1-3)[Gal(a1-3)Gal(b1-4)[Fuc(a1-3)]GlcNAc(b1-2)Man(a1-6)]Man(b1-4)GlcNAc(b1-4)GlcNAc
# Summary of the method: as §1
# [41] = biological target: Gal(a1-3)GalNAc
# Summary of the method: as §1
# [42] = biological target: Gal(a1-3)[Gal(a1-4)]Gal(b1-4)GlcNAc
# Summary of the method: as §1
# [43] = biological target: Gal(a1-4)Gal(b1-3)GlcNAc(b1-2)Man(a1-3)[Gal(a1-4)Gal(b1-3)GlcNAc(b1-2)Man(a1-6)]Man(b1-4)GlcNAc(b1-4)GlcNAc
# Summary of the method: as §1
# [44] = biological target: Gal(a1-4)Gal(b1-4)Glc
# Summary of the method: as §1
# [45] = biological target: Gal(a1-4)Gal(b1-4)GlcNAc
# Summary of the method: as §1
binder,measurement,setting,value
XCL (Xerocomus chrysenteron) (protein) MSYSITLRVYQTNRDRGYFSIVEKTVWHFANGGTWSEANGAHTLTQGGSGTSGVLRFLSTKGERITVAVGVHNYKRWCDVVTGLKPDETALVINPQYYNNGGRDYVREKQLAEYSVTSAIGTKVEVVYTVAEGNNLEANVIFS,glycan array binding signal (z-score),[1],-0.161
same,glycan array binding signal (z-score),[2],0.068
same,glycan array binding signal (z-score),[3],0.185
same,glycan array binding signal (z-score),[4],-0.245
same,glycan array binding signal (z-score),[5],-0.202
same,glycan array binding signal (z-score),[6],-0.277
same,glycan array binding signal (z-score),[7],-0.085
same,glycan array binding signal (z-score),[8],-0.21
same,glycan array binding signal (z-score),[9],-0.188
same,glycan array binding signal (z-score),[10],-0.299
same,glycan array binding signal (z-score),[11],-0.325
same,glycan array binding signal (z-score),[12],-0.302
same,glycan array binding signal (z-score),[13],-0.326
same,glycan array binding signal (z-score),[14],-0.303
same,glycan array binding signal (z-score),[15],-0.324
same,glycan array binding signal (z-score),[16],-0.251
same,glycan array binding signal (z-score),[17],-0.31
same,glycan array binding signal (z-score),[18],-0.27
same,glycan array binding signal (z-score),[19],-0.303
same,glycan array binding signal (z-score),[20],-0.291
same,glycan array binding signal (z-score),[21],-0.297
same,glycan array binding signal (z-score),[22],-0.321
same,glycan array binding signal (z-score),[23],-0.04
same,glycan array binding signal (z-score),[24],-0.321
same,glycan array binding signal (z-score),[25],-0.317
same,glycan array binding signal (z-score),[26],-0.312
same,glycan array binding signal (z-score),[27],-0.315
same,glycan array binding signal (z-score),[28],-0.295
same,glycan array binding signal (z-score),[29],-0.329
same,glycan array binding signal (z-score),[30],-0.319
same,glycan array binding signal (z-score),[31],-0.319
same,glycan array binding signal (z-score),[32],-0.308
same,glycan array binding signal (z-score),[33],-0.253
same,glycan array binding signal (z-score),[34],-0.276
same,glycan array binding signal (z-score),[35],-0.202
same,glycan array binding signal (z-score),[36],-0.32
same,glycan array binding signal (z-score),[37],-0.327
same,glycan array binding signal (z-score),[38],0.103
same,glycan array binding signal (z-score),[39],-0.315
same,glycan array binding signal (z-score),[40],-0.247
same,glycan array binding signal (z-score),[41],-0.207
same,glycan array binding signal (z-score),[42],-0.319
same,glycan array binding signal (z-score),[43],-0.307
same,glycan array binding signal (z-score),[44],-0.282
same,glycan array binding signal (z-score),[45],-0.301
